{
  "source": "paper PMC4336329",
  "about": "(PLoS ONE, 2015)",
  "note": "Among all 310,000 compounds or so, about 2,200 (0.71%) showed an effect of 50% or more. Effects have a minus sign here. This is one part of the list.",
  "data": [
    {"target": "human ether-à-go-go-related gene (hERG) potassium channel (human, UniProt Q12809)", "sequence (Q12809 whole entry, looked up)": "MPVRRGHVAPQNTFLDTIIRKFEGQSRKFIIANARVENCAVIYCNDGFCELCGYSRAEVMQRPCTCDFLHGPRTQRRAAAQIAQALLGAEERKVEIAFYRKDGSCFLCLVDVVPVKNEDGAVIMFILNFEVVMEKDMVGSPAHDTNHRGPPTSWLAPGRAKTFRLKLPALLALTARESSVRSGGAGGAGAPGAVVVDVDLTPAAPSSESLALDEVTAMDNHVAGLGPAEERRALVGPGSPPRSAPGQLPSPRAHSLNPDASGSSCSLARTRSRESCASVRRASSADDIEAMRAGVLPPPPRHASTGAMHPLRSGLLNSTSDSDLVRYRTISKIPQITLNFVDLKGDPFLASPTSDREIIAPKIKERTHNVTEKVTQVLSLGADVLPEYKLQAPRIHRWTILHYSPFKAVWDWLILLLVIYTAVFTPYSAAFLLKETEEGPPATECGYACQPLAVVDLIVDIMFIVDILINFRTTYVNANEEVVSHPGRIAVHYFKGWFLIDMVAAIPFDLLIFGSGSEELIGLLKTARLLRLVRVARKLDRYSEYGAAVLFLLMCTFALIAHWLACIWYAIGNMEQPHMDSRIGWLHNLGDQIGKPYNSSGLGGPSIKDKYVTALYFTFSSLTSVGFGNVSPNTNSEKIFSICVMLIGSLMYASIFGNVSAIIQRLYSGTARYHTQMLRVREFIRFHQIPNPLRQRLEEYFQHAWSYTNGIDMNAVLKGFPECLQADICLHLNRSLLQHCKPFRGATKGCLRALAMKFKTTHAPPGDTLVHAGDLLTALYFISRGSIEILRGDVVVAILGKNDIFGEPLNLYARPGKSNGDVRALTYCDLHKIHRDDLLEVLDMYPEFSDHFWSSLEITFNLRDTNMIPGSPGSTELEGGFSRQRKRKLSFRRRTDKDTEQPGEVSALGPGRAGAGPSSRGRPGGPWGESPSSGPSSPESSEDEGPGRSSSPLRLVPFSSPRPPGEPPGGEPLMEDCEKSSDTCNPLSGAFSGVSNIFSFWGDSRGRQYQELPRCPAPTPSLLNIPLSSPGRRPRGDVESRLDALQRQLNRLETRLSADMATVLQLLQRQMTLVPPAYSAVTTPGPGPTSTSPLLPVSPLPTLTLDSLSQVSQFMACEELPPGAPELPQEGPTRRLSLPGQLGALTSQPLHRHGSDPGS", "assay": "primary screen, population patch clamp on CHO cells stably expressing hERG", "units": {"hERG current change (%, negative = inhibition) at 1uM": "%"}, "values": [
      {"molecule": "CCOC(=O)c1c(N)nn(C(=O)C(C)(C)C)c1-c1ccccc1", "hERG current change (%, negative = inhibition) at 1uM": 10.6},
      {"molecule": "Cc1cc(C)cc(-n2c(O)c(C=NC3CCS(=O)(=O)C3)c3ccccc3c2=O)c1", "note": "(stereo not drawn)", "hERG current change (%, negative = inhibition) at 1uM": 4.25},
      {"molecule": "CCOc1ccc(CCNC(=O)COc2cc(=O)n(C)c3ccccc23)cc1OCC", "hERG current change (%, negative = inhibition) at 1uM": -2.83},
      {"molecule": "Cc1ccc(CNC(=O)CNC(=O)c2ccc(Br)o2)cc1", "hERG current change (%, negative = inhibition) at 1uM": 12.1},
      {"molecule": "CN(C)CCCSc1ccccc1NC(=O)/C=C/c1ccccc1.Cl.O", "hERG current change (%, negative = inhibition) at 1uM": -2.32},
      {"molecule": "Cc1ccc2c(c1)c1c3n2CCN(C(=O)C2CC2)C3CCC1", "note": "(stereo not drawn)", "hERG current change (%, negative = inhibition) at 1uM": 7.06},
      {"molecule": "Cc1cccc(NC(=O)CSCC(=O)N=c2sccn2C)c1", "hERG current change (%, negative = inhibition) at 1uM": -5.56},
      {"molecule": "CCOC(=O)/C=c1\\s/c(=C\\c2ccccc2OC)c(=O)n1CC(=O)N1CCOCC1", "hERG current change (%, negative = inhibition) at 1uM": 9.87},
      {"molecule": "CCOC(=O)N1CCN(C(=O)Cn2ncc3ccccc32)CC1", "hERG current change (%, negative = inhibition) at 1uM": 9.08},
      {"molecule": "Cc1cc(C)c(C#N)c(SCc2ccccc2F)n1", "hERG current change (%, negative = inhibition) at 1uM": 17.9},
      {"molecule": "Cc1ccc(Cl)cc1N1CCN(C(=S)NCCc2ccccc2)CC1", "hERG current change (%, negative = inhibition) at 1uM": 11.5},
      {"molecule": "COc1ccccc1CNCC(=O)Nc1ccc(N(C)C)cc1.O=C(O)C(=O)O", "hERG current change (%, negative = inhibition) at 1uM": 6.69},
      {"molecule": "O=C1CCCC2=C1C(c1ccco1)Nc1ccc(C(=O)c3ccccc3)cc1N2", "note": "(stereo not drawn)", "hERG current change (%, negative = inhibition) at 1uM": 5.24},
      {"molecule": "Cn1c(=O)c2[nH]c(N=NNc3ccccc3F)nc2n(C)c1=O", "hERG current change (%, negative = inhibition) at 1uM": 7.49},
      {"molecule": "Nc1c(-c2ccccc2)cnc2ncnn12", "hERG current change (%, negative = inhibition) at 1uM": 4.86},
      {"molecule": "COCC(=O)N1CCC(Oc2ccc(C(=O)N3CCCCC3COC)cc2)CC1", "note": "(stereo not drawn)", "hERG current change (%, negative = inhibition) at 1uM": 12.9},
      {"molecule": "COc1ccc([N+](=O)[O-])cc1NC(=O)CSc1nc(C)cc(C)n1", "hERG current change (%, negative = inhibition) at 1uM": 9.76},
      {"molecule": "CCCCn1c(N)c(N(CC(C)C)C(=O)c2cccs2)c(=O)[nH]c1=O", "hERG current change (%, negative = inhibition) at 1uM": 3.79},
      {"molecule": "COc1cc2c(cc1OC)C(COc1ccccc1OC)N(C(=O)C(C)(C)C)CC2", "note": "(stereo not drawn)", "hERG current change (%, negative = inhibition) at 1uM": 5.43},
      {"molecule": "Cc1cc(=O)[nH]c(SCC(=O)NN(c2ccccc2)c2ccccc2)n1", "hERG current change (%, negative = inhibition) at 1uM": 5.55},
      {"molecule": "Cc1oc(-c2ccc(Cl)cc2)nc1CS(=O)CC(=O)NCc1ccco1", "note": "(stereo not drawn)", "hERG current change (%, negative = inhibition) at 1uM": 4.23},
      {"molecule": "O=C(Cn1cc(C(=S)N2CCOCC2)c2ccccc21)N1CCOCC1", "hERG current change (%, negative = inhibition) at 1uM": 15.6},
      {"molecule": "Cc1ccccc1-c1nn(-c2ccc(F)cc2F)cc1CNCCCO", "hERG current change (%, negative = inhibition) at 1uM": 12.2},
      {"molecule": "COc1ccccc1C(=O)NC(=O)COC(=O)CNC(=O)c1ccc(Cl)cc1Cl", "hERG current change (%, negative = inhibition) at 1uM": 13.4},
      {"molecule": "COC(=O)c1ccccc1Nc1ccnc(Cl)n1", "hERG current change (%, negative = inhibition) at 1uM": -6.9},
      {"molecule": "C=CCNC(=S)Nc1ccc(C)c(S(=O)(=O)N2CCCCC2)c1", "hERG current change (%, negative = inhibition) at 1uM": 0.161},
      {"molecule": "Cc1cc(C)c2ccc(/C=N/O)nc2c1O", "hERG current change (%, negative = inhibition) at 1uM": 8.72},
      {"molecule": "Cc1ccc(CC(=O)O/N=C(\\N)c2ccccn2)cc1", "hERG current change (%, negative = inhibition) at 1uM": 5.66},
      {"molecule": "CCCN1C2CCCC1CC(NC(=O)c1ccccc1)C2", "note": "(stereo not drawn)", "hERG current change (%, negative = inhibition) at 1uM": 4.52},
      {"molecule": "COc1ccc(C2C(C(=O)OCC(=O)NC(C)(C)C)CCC(=O)N2c2ccc(C)cc2)cc1OC", "note": "(stereo not drawn)", "hERG current change (%, negative = inhibition) at 1uM": 0.459},
      {"molecule": "O=C(Nc1nccs1)c1ccc(N2C(=O)[C@@H]3[C@H](C2=O)[C@H]2C=C[C@@H]3C2)cc1", "hERG current change (%, negative = inhibition) at 1uM": 3.74},
      {"molecule": "CC(C)c1ccc(/C=N/NC(=O)CCNC(=O)c2ccccc2)cc1", "hERG current change (%, negative = inhibition) at 1uM": -14.3},
      {"molecule": "COc1ccc(OC)c(S(=O)(=O)Nc2cc(OC)c(Cl)cc2OC)c1", "hERG current change (%, negative = inhibition) at 1uM": 13.1},
      {"molecule": "Cc1cc(C)n(CC(C)NCc2c(C(=O)N3CCOCC3)nc3c(C)cccn23)n1", "note": "(stereo not drawn)", "hERG current change (%, negative = inhibition) at 1uM": 8.88},
      {"molecule": "CCOc1ccc(C2CC(c3ccccc3C)n3ncnc3N2)cc1", "note": "(stereo not drawn)", "hERG current change (%, negative = inhibition) at 1uM": 6.88},
      {"molecule": "CC(=O)N1c2ccccc2CCc2ccc([N+](=O)[O-])cc21", "hERG current change (%, negative = inhibition) at 1uM": 10.6},
      {"molecule": "O=C1/C(=C/c2cccc(O)c2)SC(=S)N1CC1CCCO1", "note": "(stereo not drawn)", "hERG current change (%, negative = inhibition) at 1uM": 13.7},
      {"molecule": "CCCc1nnc(SCC(=O)N2CCCCC2C)n1CCOC", "note": "(stereo not drawn)", "hERG current change (%, negative = inhibition) at 1uM": 5.73},
      {"molecule": "O=C(O)c1nn(CC(=O)N2CCCCCC2)c(=O)c2ccccc12", "hERG current change (%, negative = inhibition) at 1uM": 16},
      {"molecule": "O=c1[nH]c(=O)n(CCC2=CCCCC2)c(O)c1C=NCc1cccnc1", "hERG current change (%, negative = inhibition) at 1uM": 9.06},
      {"molecule": "COc1cc(NC(=O)COC(=O)C=C(C)C)c(C)cc1[N+](=O)[O-]", "hERG current change (%, negative = inhibition) at 1uM": -0.468},
      {"molecule": "NS(=O)(=O)c1ccc(NC(=O)/C=C/c2ccco2)cc1", "hERG current change (%, negative = inhibition) at 1uM": 4.45},
      {"molecule": "CCOC(=O)c1ccc(NC(=O)c2c(C)[nH]c(C(=O)OCC)c2C)cc1", "hERG current change (%, negative = inhibition) at 1uM": -2.74},
      {"molecule": "OCc1nc(CO)n(Cc2ccccc2)n1", "hERG current change (%, negative = inhibition) at 1uM": -0.673},
      {"molecule": "O=C(COC(=O)c1c2c(nc3ccccc13)/C(=C\\c1cccs1)CCC2)Nc1ccccc1", "hERG current change (%, negative = inhibition) at 1uM": -3.82},
      {"molecule": "O=C(CN1C(=O)c2ccccc2S1(=O)=O)NCCSCc1ccco1", "hERG current change (%, negative = inhibition) at 1uM": 6.7},
      {"molecule": "N#Cc1c(N2CCN(C(=O)c3ccco3)CC2)nc(-c2ccccc2)c2c1CCCC2", "hERG current change (%, negative = inhibition) at 1uM": 9.26},
      {"molecule": "CCCCCCn1cnc2c(oc3nc4c(cc32)CCCC4)c1=O", "hERG current change (%, negative = inhibition) at 1uM": 10.5},
      {"molecule": "Cc1c(NC(=O)C2CCCCC2)cc(C(=O)N2CCOCC2)cc1[N+](=O)[O-]", "hERG current change (%, negative = inhibition) at 1uM": 0.815},
      {"molecule": "CN1CC2([N+](=O)[O-])CC=C(Oc3ccccc3)C([N+](=O)[O-])(C1)C2", "note": "(stereo not drawn)", "hERG current change (%, negative = inhibition) at 1uM": 10.6},
      {"molecule": "O=C(CSc1nnc(C2COc3ccccc3O2)o1)N1CCN(c2ccccc2)CC1", "note": "(stereo not drawn)", "hERG current change (%, negative = inhibition) at 1uM": 6.45},
      {"molecule": "COc1ccc(NC(=O)CSc2nc3[nH]ncc3c(=O)[nH]2)cc1OC", "hERG current change (%, negative = inhibition) at 1uM": 13.9},
      {"molecule": "O=C(c1cc2ccccc2o1)N(Cc1ccco1)Cc1cccs1", "hERG current change (%, negative = inhibition) at 1uM": 4.67},
      {"molecule": "COc1ccccc1CCN1CCCC(CN(C)CC(C)(C)CO)C1", "note": "(stereo not drawn)", "hERG current change (%, negative = inhibition) at 1uM": 13.6},
      {"molecule": "COCCNC(=S)N/N=C(\\C)c1ccc(C)c([N+](=O)[O-])c1", "hERG current change (%, negative = inhibition) at 1uM": 7.07},
      {"molecule": "Cn1c(N)c(C(=O)COC(=O)C2CCN(S(=O)(=O)c3cccs3)CC2)c(=O)n(C)c1=O", "hERG current change (%, negative = inhibition) at 1uM": 1.91},
      {"molecule": "Nc1nnc(Cc2ccc(Cl)cc2)s1", "hERG current change (%, negative = inhibition) at 1uM": 1.75}
    ]}
  ]
}
